Experimental data taken from publication PMC12136788.
Some of the results follow.

T1: UNK ZnF1-3 (human, UniProt Q9C0B0 31-174)
T1 sequence: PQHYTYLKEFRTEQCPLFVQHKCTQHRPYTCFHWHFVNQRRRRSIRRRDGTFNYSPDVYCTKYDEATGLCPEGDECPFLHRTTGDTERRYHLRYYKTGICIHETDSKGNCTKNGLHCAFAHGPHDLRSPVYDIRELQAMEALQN

B1: chr3:41417089:41417090:+_ENSMUSG00000025764_ENSMUST00000026865|mus_hu|FALSE|FALSE (ssRNA)
RNA: GGGAGUUCUACAGUCCGACGAUCAACCAAGGAAGUACCCAUUUGUUUUCUGAAGAAUGCAGAAUGCCACUUCAAGUCCUCUAUCUUGGGAGCAUCAGGGCCAACAGAAGGACUGUUAAACAAAAGCAUGUUUUCCAGUGAGGACAACAGAGGAUUGAGCAUCA
B2: chr19:15981513:15981514:-_ENSMUSG00000024640_ENSMUST00000025542|mus_mus|motif|central (ssRNA)
RNA: GGGAGUUCUACAGUCCGACGAUCCAAAGCUUCGUCUCCUUUGGCGUUGCCAAUGCGAAAUGGGAUGUUCAUCCUGCUUCGGUUCUGGCGCUCCACUGGGCAUACAUAAAAUCCUUGAGAAUUAUCAAUGAUCUCAUAAAUCAUCAACAGAGGAUUGAGCAUCA
B3: chr4:139038490:139038491:+_ENSMUSG00000066036_ENSMUST00000145659|mus_hu|FALSE|FALSE (ssRNA)
RNA: GGGAGUUCUACAGUCCGACGAUCCCUCCGCAAGAUUUCCACACGUGUGGCUCUCCACUGCUCAGGGGGCAGGAUGUGAAGGGCCAAGACUGUGAAAUAGUAGGGCCCGUCCACUUCAAAGGCACUCUCCACCCACUUCUCCUUCAACAGAGGAUUGAGCAUCA
B4: chr14:89307221:89307222:+_ENSG00000165533_ENST00000346301|hu_mus|hu_hu_hu_mus_False|88_98 (ssRNA)
RNA: GGGAGUUCUACAGUCCGACGAUCUCCUGUUUGGUUAGUUCCAGGGAGUUUCAAAGAUGUGCCAGGGCGUGGGACCUGAGCAAUAGCAUUUUCAUCCAGGAUCAUUUCAGCAAUUCCUUCCUGGUCCACAUCAAUUUCAUCUAUCAACAGAGGAUUGAGCAUCA
B5: chr2:73746717:73746718:-_ENSMUSG00000018770_ENSMUST00000018914|mus_mus|FALSE|FALSE (ssRNA)
RNA: GGGAGUUCUACAGUCCGACGAUCCAAGAUCAAGAACGCAACCAUCAAACAAAAGAGACCCAUAGCUUCAGACAAGGCAAAUCCCAGGAUAGCAUAUGAGAACAGCUGCUGCUUCAGUGAAGGGUUUCUGGCAUAACCAAUGAUCAACAGAGGAUUGAGCAUCA
B6: 90438853_90440559_5201_CDS_ENSG00000112159_ENST00000369393|human|control|control (ssRNA)
RNA: GGGAGUUCUACAGUCCGACGAUCAGGUCCCCUUGGUAUAAAAAAUGGAUGAAUUCCCCAAAGGUUAUCUAUUCCAGUGAAUUCUUUGGCCUUCAUUCUGUCAUAAAUCUUCAACUCAUUUUUCUGAUAUUCUGUAAGUCGUACCAACAGAGGAUUGAGCAUCA
B7: chr6:124662746:124662747:+_ENSMUSG00000004264_ENSMUST00000004375|mus_mus|motif|central (ssRNA)
RNA: GGGAGUUCUACAGUCCGACGAUCUUCGGCCAGGAUCGUGUCCUGCUGCACGCCACCAAUACGAUUAAAAAAGAUGGCUCGGUGACCGCCUUCCACGGUGAACACGGAUUCGCGGACGCCGUAGGCCACCGCCCCGGCCCCCAGCAACAGAGGAUUGAGCAUCA
B8: chr14:102036314:102036315:-_ENSMUSG00000075486_ENSMUST00000100339|mus_hu|FALSE|FALSE (ssRNA)
RNA: GGGAGUUCUACAGUCCGACGAUCCUUAAGAGAUCUGCAAGUGUCUGAGCUCACAGCCAUACCCAGUUUCCACUGAAAAUCUACAAGCUGGUUGGUGACAUCGGACUUAGCAUCCAGCGGCGGCUCGCUGGACGCCUCCAUGGGCAACAGAGGAUUGAGCAUCA
B9: chr2:91389038:91389039:+_ENSMUSG00000040549_ENSMUST00000099716|mus_hu|motif|central (ssRNA)
RNA: GGGAGUUCUACAGUCCGACGAUCUAAUCCUUUCAAUUGAACCACUGCAUUGGAAUCAGUGACAAAUUUUUUGAUCAAUCCGGAAAAUUUGGACCACUCUGGGCUCUUUUCAUCCUUUAUUUUCUGGAAGAUCUUCAGGGCCUCCAACAGAGGAUUGAGCAUCA
B10: chr11:77336104:77336105:-_ENSG00000074201_ENST00000525064|hu_mus|hu_hu_hu_mus_False|8_18 (ssRNA)
RNA: GGGAGUUCUACAGUCCGACGAUCCUCACACAUUGCUGUGAACAUCGCCUCCAAUGCUGACUUAUCACUGGGCACAAAUCGAAAUUCAGAAAUGGGUUCAACAUCAUCAUUGUCUUCUUCCUCUUCUUCAUCAGCAAGUUCUUUCAACAGAGGAUUGAGCAUCA
B11: chr11:20626769:20626770:-_ENSMUSG00000049659_ENSMUST00000146722|mus_mus|FALSE|FALSE (ssRNA)
RNA: GGGAGUUCUACAGUCCGACGAUCGACGCAGACCUGAUGUUCUCUUUCAGUGUUCCCCGUAUCCUCAAAGCUUCCAUCCAAAGUCACUUCUUUCACACAGUUUAGUUCCUUGACUCUGGGGCCUUUGCUGUUUCCCUGAAUGGUCAACAGAGGAUUGAGCAUCA
B12: chr16:67133199:67133200:+_ENSG00000067955_ENST00000412916|hu_mus|FALSE|FALSE (ssRNA)
RNA: GGGAGUUCUACAGUCCGACGAUCUAUUCUAGGUUUAUAGCUGGAAAAAAUAACUGCAAACACAUCUUCAUUUGUAAAAUGGUGCAGAAUACAAAAACACGAAAUGAUGUAGAGAAAACAAACAAAAACCAAGAACCCUUAUCUCAACAGAGGAUUGAGCAUCA
B13: chr20:32439910:32439911:+_ENSG00000101421_ENST00000217402|hu_hu|motif|central (ssRNA)
RNA: GGGAGUUCUACAGUCCGACGAUCAGGGACUGUUUCGGGUCCACUGAUUUCCAGCAAAUUCUUGUCUAGUUCCUCCUGUUCGGGUUCUUCUAAUUCCGCCAUGAGCUCAUCCUCGUCAAACUCUUCUCCAAACCCUACAGGUUUCAACAGAGGAUUGAGCAUCA
B14: chr4:56883625:56883626:-_ENSMUSG00000055296_ENSMUST00000068792|mus_mus|FALSE|FALSE (ssRNA)
RNA: GGGAGUUCUACAGUCCGACGAUCUAUAGGCGUGCGCCACCACGCCCGGGUUUAAAAUGUGUAGACCAGGCUGGCCUCGAACUCGCGAUCCUCCUGCUUCUGCCUCCUUCAGCAAAUCCUACUGGCGUGCGCCACCACAACCAGCAACAGAGGAUUGAGCAUCA
B15: 118482981_118483101_2867_CDS_ENSG00000172869_ENST00000311085|human|control|control (ssRNA)
RNA: GGGAGUUCUACAGUCCGACGAUCCAUUUCUGAAAACAGAGUCAACCUGCUGGUACUCUGGAGAUUUGCUCUGCAAGCCUGAUACUUUUGUGAAAAAGGAGAUAGGAUCUUCUCUGGAGAAGAAGAAUAAUGUUCUUCUGGCUGCAACAGAGGAUUGAGCAUCA
B16: chr17:60770872:60770873:+_ENSG00000011028_ENST00000303375|hu_hu|hu_hu_hu_mus_True|28_28 (ssRNA)
RNA: GGGAGUUCUACAGUCCGACGAUCUCUUUAAAAAAAAAAAAAAAAAGACAAACAAUAAUAGCACAUUUCGAGAAUCAAGAACUACAAUAGAGGGUCCGCUUUGAGUUGUCCAUGUUCUCGUCCUGCACUGGGACACGGGGACUGCAACAGAGGAUUGAGCAUCA
B17: chrX:131338992:131338993:-_ENSMUSG00000033436_ENSMUST00000035559|mus_mus|FALSE|FALSE (ssRNA)
RNA: GGGAGUUCUACAGUCCGACGAUCUAUCACAGAUAACAUCACUCUGAAUUAUUCAAACGUGGCAUCUGAAUAAUUCCUGUACUACACACACAAGUAGAAAAACAAUAGUGUCUCACUGUUAAUGCUUCCCGAGUGUAAAACCGACAACAGAGGAUUGAGCAUCA
B18: chr4:34758383:34758384:-_ENSMUSG00000039967_ENSMUST00000047950|mus_hu|motif|central (ssRNA)
RNA: GGGAGUUCUACAGUCCGACGAUCCUCAUCAUCUGAACCAUCAUUGUCAUUAAACACUAUAAAAUCUGUUGAAUAGAGACGGUUCUUUUUUAUAGGUCGCUGCUCCUGUUUAGCCACAGUAUUAGUCUUCUGAUUUUCAUUGGUCAACAGAGGAUUGAGCAUCA
B19: 118615098_118619259_2033_CDS_ENSG00000135090_ENST00000392533|human|control|control (ssRNA)
RNA: GGGAGUUCUACAGUCCGACGAUCCUGGAACUUCUUCUCAUCUGCUGCAGCUACCUUUGCCUCCUUUUCUAUGAUAGCCACUUGCUUCUUGGCCAGCUUCUCCAGCUCGAUGGACGAGUUGUUGGCAUGCGUCUCCACCUCCUUCAACAGAGGAUUGAGCAUCA
B20: chr8:27055589:27055590:-_ENSMUSG00000037260_ENSMUST00000037609|mus_hu|FALSE|FALSE (ssRNA)
RNA: GGGAGUUCUACAGUCCGACGAUCUUCCCUUUAACAAAGGCUGCUUCAGUCCUCCCUGCAGGCCUACUAGAGUCUUCCAGCAGCACAUCUCAGUGGGAGCCAUCAGAUUUUCCAAAAAAUCUUCUUUCUAUAGAGGAUGUAGGCCAACAGAGGAUUGAGCAUCA
B21: chr1:29344887:29344888:+_ENSG00000159023_ENST00000356093|perfect_dup|FALSE|FALSE (ssRNA)
RNA: GGGAGUUCUACAGUCCGACGAUCUUCCAUGACCUUUUCUUCAAGUUCCUUGGUCUGAUUUGGAGCCAGUUUAAAAUCACUAACAUAAUCCAUGCCGUGCAGUUCUGGGUCAUAGUCUCCCAGCUCAGACUGGAUCGUGUAAGACAACAGAGGAUUGAGCAUCA
B22: chr1:182792627:182792628:+_ENSMUSG00000038806_ENSMUST00000038091|mus_mus|FALSE|FALSE (ssRNA)
RNA: GGGAGUUCUACAGUCCGACGAUCAGAGUGUGUACCAGAGGCCGAGCUCCGAGGACUGCCAGGUCGGUCGGCUGCCACCUCUACAGCAUCAAUGCCGUCUUCCCGAGCACAGCAGCUCUGCUCCGAAGUCCCAGGAGCAUCCUCCAACAGAGGAUUGAGCAUCA

Target: T1, UNK ZnF1-3
Test: nsRBNS (natural sequence RNA bind-n-seq); RBNS binding buffer (assumed for nsRBNS): 25 mM Tris pH 7.5, 150 mM KCl, 3 mM MgCl2, 0.01% Triton X-100, 500 ug/ml BSA, 20 U/ml SUPERase-In, 4 C; UNK is unkempt and MSI1 is Musashi-1; names of the RNAs are library labels; protein concentration not given here; high values mean tight binding

| Binder | binding signal [enrichment R] |
| --- | --- |
| B1 | 1.71 |
| B2 | 0.68 |
| B3 | 0.981 |
| B4 | 0.874 |
| B5 | 1.48 |
| B6 | 0.892 |
| B7 | 0.701 |
| B8 | 1.05 |
| B9 | 0.767 |
| B10 | 1.16 |
| B11 | 0.53 |
| B12 | 1.58 |
| B13 | 0.384 |
| B14 | 0.972 |
| B15 | 0.885 |
| B16 | 1.99 |
| B17 | 0.715 |
| B18 | 0.725 |
| B19 | 0.519 |
| B20 | 1.28 |
| B21 | 0.621 |
| B22 | 0.834 |
